From paper PMC4336329 (PLoS ONE, 2015)
Out of some 310,000 compounds screened, about 14,000 (4.5%) showed an effect of 50% or more. Effects have a minus sign here. The list shows a part of the results.

target: human ether-à-go-go-related gene (hERG) potassium channel (human, UniProt Q12809); experiment: primary screen, population patch clamp on CHO cells stably expressing hERG
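Note: peak tail current of the secondary pulse compared with the same well before compound.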

Chain of human ether-à-go-go-related gene (hERG) potassium channel (Q12809 whole entry, looked up): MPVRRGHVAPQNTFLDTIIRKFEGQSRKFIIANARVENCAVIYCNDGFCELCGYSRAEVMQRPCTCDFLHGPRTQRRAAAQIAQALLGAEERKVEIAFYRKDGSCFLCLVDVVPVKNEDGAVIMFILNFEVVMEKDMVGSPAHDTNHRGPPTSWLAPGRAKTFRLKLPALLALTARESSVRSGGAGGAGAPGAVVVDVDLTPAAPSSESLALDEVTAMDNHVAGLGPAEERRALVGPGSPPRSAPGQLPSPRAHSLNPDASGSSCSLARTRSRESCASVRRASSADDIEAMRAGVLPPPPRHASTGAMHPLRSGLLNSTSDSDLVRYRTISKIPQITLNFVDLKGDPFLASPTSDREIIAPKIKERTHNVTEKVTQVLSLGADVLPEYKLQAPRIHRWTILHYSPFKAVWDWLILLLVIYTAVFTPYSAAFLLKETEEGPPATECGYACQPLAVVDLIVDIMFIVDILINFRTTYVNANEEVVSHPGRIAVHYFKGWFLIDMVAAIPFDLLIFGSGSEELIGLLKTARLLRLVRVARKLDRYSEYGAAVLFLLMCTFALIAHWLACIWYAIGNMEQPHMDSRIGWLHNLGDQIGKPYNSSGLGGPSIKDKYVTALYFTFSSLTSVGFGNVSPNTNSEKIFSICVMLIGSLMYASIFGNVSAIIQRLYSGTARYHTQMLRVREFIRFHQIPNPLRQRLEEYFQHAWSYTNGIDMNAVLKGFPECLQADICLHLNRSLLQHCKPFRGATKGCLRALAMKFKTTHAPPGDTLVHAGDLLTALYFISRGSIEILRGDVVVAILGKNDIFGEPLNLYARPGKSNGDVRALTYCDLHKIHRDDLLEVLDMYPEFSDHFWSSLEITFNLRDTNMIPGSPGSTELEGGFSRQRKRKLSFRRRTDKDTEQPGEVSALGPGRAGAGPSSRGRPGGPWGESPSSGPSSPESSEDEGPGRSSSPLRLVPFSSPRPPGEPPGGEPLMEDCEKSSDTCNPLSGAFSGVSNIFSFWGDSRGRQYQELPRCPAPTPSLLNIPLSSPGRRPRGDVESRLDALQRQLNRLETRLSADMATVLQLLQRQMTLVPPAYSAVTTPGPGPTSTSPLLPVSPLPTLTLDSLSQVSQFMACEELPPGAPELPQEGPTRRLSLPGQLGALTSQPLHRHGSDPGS

Structure (SMILES) | hERG current change (%, negative = inhibition) at 10uM [%]
CC(C)CCN1C(=O)CCC1(C)C(=O)NC1CCCCCCC1 (centres unmarked) | 10.8
CCn1c2ccccc2c2cc(NC(=O)CSc3nnnn3-c3ccccc3)ccc21 | 1.69
CC(=O)Nc1ccc(NC(=O)CSc2nnc(-c3cccnc3)o2)cc1 | 7.42
CN1C(=O)c2ccccc2N(C)C1c1cccs1 (centres unmarked) | -6.57
Cc1ccc(S(=O)(=O)N(C)C)cc1NC(=O)c1cncc(Br)c1 | -6.57
O=C1CN(C(=O)CSc2nc(-c3ccc(Cl)cc3)cs2)c2ccccc2N1 | 13.9
COc1ccc(-c2cc(=O)oc3cc(OC(C)C(=O)NCCCn4ccnc4)ccc23)cc1 (centres unmarked) | -50.8
COc1ccc(-n2c(SCC(N)=O)nnc2-c2ccco2)cc1 | 15.5
COc1ccc2c(c1)c(=O)c(Br)c(C)n2Cc1ccccc1 | -9.03
COc1ccc(-n2nc([N+](=O)[O-])c(=NCCc3ccccc3)n2O)cc1 | -6.24
CCN(CC)CCN1C(=O)C2C(C(=O)Nc3cc(C)cc(C)c3)C3C=CC2(O3)C1C(=O)NC1CCCCC1 (centres unmarked) | 4.15
CC(NC(=O)CSc1nc2ccccc2n1CCC#N)c1ccc(F)cc1 (centres unmarked) | -5.77
Cc1[nH]c2ccccc2c1C1=CCNCC1 | 2.58
CCOC(=O)C1=C(C)Nc2ccccc2N=C1NC(=O)C(c1ccccc1)c1ccccc1 | 4.69
COc1ccc(C(=O)C2CCCN(C(=O)/C=C/c3cnc[nH]3)C2)c(C)c1 (centres unmarked) | 8
CCOc1cc(CNCCc2c[nH]c3ccccc23)cc(Cl)c1OCC | -14
Cc1csc(SCC(=O)N2CCCC2)n1 | 8.96
CCCCC[C@H](O)/C=C/[C@@H]1[C@@H](C/C=C\CCCC(=O)O)[C@H]2CO[C@@H]1C2 | 10.4
CC(C)(C)OC(=O)N1CCC(c2c(C(=O)O)cnn2-c2ccccc2Cl)CC1 | -5.43

Structure (SMILES) | hERG current change (%, negative = inhibition) at 10uM [%]
COc1cc(OC)c2c(-c3ccccc3)cc(=O)oc2c1C(CCN1CCCC(C)C1)c1ccc2c(c1)OCO2 (centres unmarked) | -48.8
Cc1ccc(S(=O)(=O)N(C)Cc2ccc(-c3nnc4n3CCC4)cc2)cc1 | -20.4
CC(C#Cc1ccc2c(c1)COc1c3ccccc3nn1-2)OC(C)(C)C (centres unmarked) | 15.8
COCc1nnc(NC(=O)CCN2C(=O)c3ccccc3C2=O)s1 | 6.9
O=C(O)c1ccc2c(c1Nc1ccccc1)C(=O)c1ccccc1C2=O | 24.9
CC(=O)c1cc(CCC(=O)NC2CCCCCC2)oc1C | 8.28
COc1ccc(OC)c(N(CC(=O)NCc2ccccn2)S(C)(=O)=O)c1 | -6.87
Cl.OC(COCc1ccc(Cl)cc1)CN1CCc2ccccc2C1 (centres unmarked) | -70.4
COc1ccc(-n2cc(CNCCc3ncc(C)[nH]3)c(-c3ccccc3Cl)n2)cc1 | -63.6
COc1ccccc1C(=O)NCCOc1ccc(C)c(C)c1 | 18.5
CC1CCN(c2[nH]c(=S)c(C#N)c3c2CCCC3)CC1 | 12.9
O=C(NNC(=O)c1ccc(Cl)cc1Cl)c1cnccn1 | -6.19
Cc1ccc(SC(C)C(=O)NC(N)=O)c(C)c1 (centres unmarked) | 17
CC(C)N(C(=O)COC(=O)c1cccc(C(=O)OCC(=O)N(C(C)C)C(C)C)n1)C(C)C | 12.5
Cc1nc2ccccc2n1CCc1nc2c3ccccc3nc(=S)n2[nH]1 | 12.4
O=C(NCCCN1CCN(CCCNC(=O)c2ccccc2F)CC1)c1ccccc1F | -53
CCCN1CCC(N2CCCC(C(=O)O)C2)CC1.Cl (centres unmarked) | 17.8
CCOC(=O)CC1CCCCN1Cc1nc(-c2ccc(F)c(OC)c2)oc1C (centres unmarked) | -65.5
Cc1ccc(NC(=O)C2CCCC2)cc1S(=O)(=O)N1CCOCC1 | -12.4

Structure (SMILES) | hERG current change (%, negative = inhibition) at 10uM [%]
CCC(Sc1ncccc1C(=O)O)C(=O)N1CCOCC1 (centres unmarked) | -1.88
CN(C)CCNC(=O)c1cc2sc3ccccc3c2s1.Cl | -31.5
CC1CN(C(=O)CCC(=O)N2CCC3(CC2)OCCO3)c2cc(Cl)ccc2O1 (centres unmarked) | -4.38
C=CCN1C=C2C(=O)C(C)(OC(=O)CCC(=O)OC)C(=O)C(Br)=C2C=C1c1ccc(OC)cc1 (centres unmarked) | 4.2
CCC(=O)NCc1ccc(-c2nc3ncccc3o2)cc1 | 13
CCN1CCCC1Cn1cnc2c([nH]c3cc(OC)ccc32)c1=O (centres unmarked) | -63.8
COCc1cc(CN(C)C(=O)c2oc3c(F)cccc3c2C)[nH]n1 | 8.21
O=C(CN1CCN(C(c2ccccc2)c2ccccc2)CC1)N1N=CCC1c1ccccc1 (centres unmarked) | -50.1
CCn1c(Cc2ccccc2)nnc1SCC(=O)Nc1nnc(-c2ccccc2)s1 | 1.64
COC(=O)CN(C(=S)Nc1ccccc1)C1CC(=O)N(c2ccc(OC)cc2)C1=O (centres unmarked) | -6.5
N#CCCn1cc(C=C2C(=O)NC(=O)NC2=O)c(-c2ccccc2)n1 | 25.2
O=S(=O)(NC1CCCc2ccccc21)c1cnc[nH]1 (centres unmarked) | 0.154
COc1ccc(Cc2nnc(NC(=O)CSc3ccc(C)cc3)s2)cc1OC | 5.26
CC(C)(Oc1ccc(Cl)cc1)C(=O)Nc1c2c(nn1C(C)(C)C)CS(=O)(=O)C2 | -48.3
O=C(O)C(=O)O.OCCN1CCN(CC(O)COC(c2ccc(F)cc2)c2ccc(F)cc2)CC1 (centres unmarked) | -61.9
Cc1ccc(/S(C)=N/S(=O)(=O)c2ccc(C)cc2)cc1 (centres unmarked) | 6.76
O=C(NCc1ccco1)c1ccccc1 | 8.8
CCCCCCc1cc2cc(-c3nnc(-c4ccccc4O)o3)c(=O)oc2cc1O | -4.25
